Results from article PMC4336329 (PLoS ONE, 2015).
About 14,000 (4.5%) of roughly 310,000 compounds showed an effect of 50% or more. Effects have a minus sign here. Some of the results follow.

Each compound was assayed against human ether-à-go-go-related gene (hERG) potassium channel (human, UniProt Q12809) (assay: primary screen, population patch clamp on CHO cells stably expressing hERG).
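Note: peak tail current of the secondary pulse compared with the same well before compound.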

human ether-à-go-go-related gene (hERG) potassium channel, sequence (Q12809 whole entry, looked up): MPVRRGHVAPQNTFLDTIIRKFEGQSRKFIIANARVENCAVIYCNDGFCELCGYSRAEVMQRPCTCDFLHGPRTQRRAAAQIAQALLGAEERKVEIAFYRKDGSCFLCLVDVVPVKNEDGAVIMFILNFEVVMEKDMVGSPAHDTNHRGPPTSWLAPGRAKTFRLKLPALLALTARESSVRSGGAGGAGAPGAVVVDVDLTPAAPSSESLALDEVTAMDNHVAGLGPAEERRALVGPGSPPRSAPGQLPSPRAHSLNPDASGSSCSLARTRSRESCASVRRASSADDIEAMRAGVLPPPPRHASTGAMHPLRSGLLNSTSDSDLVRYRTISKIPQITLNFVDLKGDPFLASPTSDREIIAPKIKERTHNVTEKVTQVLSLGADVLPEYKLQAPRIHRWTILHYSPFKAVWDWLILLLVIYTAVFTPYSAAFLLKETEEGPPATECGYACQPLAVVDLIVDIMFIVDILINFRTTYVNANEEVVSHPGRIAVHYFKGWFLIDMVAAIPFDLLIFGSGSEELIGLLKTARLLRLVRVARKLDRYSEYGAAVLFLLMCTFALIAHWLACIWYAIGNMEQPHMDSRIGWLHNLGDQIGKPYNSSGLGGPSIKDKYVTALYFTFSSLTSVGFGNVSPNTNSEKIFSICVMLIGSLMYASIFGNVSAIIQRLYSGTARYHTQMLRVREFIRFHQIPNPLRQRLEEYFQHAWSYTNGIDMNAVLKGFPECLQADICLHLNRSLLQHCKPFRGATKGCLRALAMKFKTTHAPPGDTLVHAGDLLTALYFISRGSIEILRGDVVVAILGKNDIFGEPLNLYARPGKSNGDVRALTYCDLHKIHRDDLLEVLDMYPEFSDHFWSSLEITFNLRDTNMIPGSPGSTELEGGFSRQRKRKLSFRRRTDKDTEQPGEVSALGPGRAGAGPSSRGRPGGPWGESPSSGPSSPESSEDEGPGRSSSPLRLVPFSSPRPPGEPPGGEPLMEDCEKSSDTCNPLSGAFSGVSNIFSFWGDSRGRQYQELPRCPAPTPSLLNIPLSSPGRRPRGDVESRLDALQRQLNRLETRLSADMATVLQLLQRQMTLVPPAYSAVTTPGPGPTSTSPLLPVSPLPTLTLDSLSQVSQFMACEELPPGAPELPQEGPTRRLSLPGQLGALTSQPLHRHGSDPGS

| Structure (SMILES) | hERG current change (%, negative = inhibition) at 10uM [%] |
| --- | --- |
| CC(=O)N1CCN(c2ccc(NC(=O)c3ccc4c(c3)OCO4)cc2)CC1 | -17.7 |
| N#CCCn1cc(/C=N/NC(=O)c2ccncc2)c(-c2ccccc2)n1 | -4.78 |
| CC1=C(C(=O)N2CCCC(CCC(=O)NCc3ccccc3F)C2)OCCO1 (centres unmarked) | 19.7 |
| Cc1nc(NC2CCCC2)sc1C(=O)N(C)C | 13.4 |
| Cc1ccc(NC(=O)CO/N=C/c2ccc(N(C)C)cc2)cc1 | 14.1 |
| CCCC(=O)Nc1c2c(nn1-c1cccc(C)c1C)CS(=O)(=O)C2 | -8.64 |
| COc1ccccc1N1CCN(C(=O)c2c(-c3ccccc3)noc2C)CC1 | -39.1 |
| O=C(O)CCCC(=O)NNC(=O)c1cccc(Br)c1 | 15.9 |
| CCCN1C2CCCC1CC(NC(=S)Nc1cccc(C)c1)C2 (centres unmarked) | -44.5 |
| S=C(NCc1ccco1)Nc1cc(Cl)c(Cl)cc1Cl | 10.8 |
| CCOC(=O)CSc1nnc2c3ccccc3n(C)c2n1 | -3.05 |
| COc1ccc(C(=S)NC2CCCCC2)cc1 | -22.2 |
| CC(=O)c1cccc(N(C(=O)c2csnn2)C(C(=O)NC2CCCC2)c2ccccc2)c1 (centres unmarked) | -18.5 |
| CC(C)CC(C(=O)NCC1CCCO1)N(C(=O)Cn1nnc(-c2ccc(F)cc2)n1)c1ccccc1F (centres unmarked) | -47 |
| O=C(c1ccc2oc(Cc3ccc(Cl)cc3)nc2c1)N1CCCCC1CCO (centres unmarked) | -15 |
| CCc1ccc(CN(C)C(=O)c2cc(COc3cccc4cnccc34)on2)cc1 | 1.05 |
| CC(C)C[C@@H](CO)N(Cc1ccccc1)S(=O)(=O)N(Cc1ccccc1)[C@H](CO)CC(C)C | 9.2 |
| Cc1cc(C(C)c2ccccc2)c(O)c(CN2CCOCC2)c1C (centres unmarked) | 9.05 |
| COc1ccc(CN2CCN(C3CCOCC3)CC2CCO)c(C)c1C (centres unmarked) | -12.4 |
| CC(OC(=O)/C=C/c1ccccc1)C(=O)Nc1ccc(C(N)=O)cc1 (centres unmarked) | 13 |
| Nc1ccc(/C=C/C(=O)c2ccco2)cc1 | -8.19 |
| COC(=O)C1=C(C)NC(C)=C(C(=O)OC)C1c1ccc(OC(=O)c2ccco2)cc1 | 9.46 |

| Structure (SMILES) | hERG current change (%, negative = inhibition) at 10uM [%] |
| --- | --- |
| CCOc1ccc(C2C(C(=O)c3ccco3)=C(O)C(=O)N2Cc2cccnc2)cc1 (centres unmarked) | 3.07 |
| Cc1csc(NC(=O)CSc2ccc3nnc(CCNS(=O)(=O)c4ccccc4)n3n2)n1 | 22.4 |
| CC(=O)NCCn1c(SCC(=O)NCCc2ccc(S(N)(=O)=O)cc2)nc2ccccc2c1=O | 13 |
| CCC(c1nnnn1C(C)(C)C)N1CCN(Cc2ccccc2OC)CC1.Cl (centres unmarked) | -19.2 |
| O=C(CCc1nnc(-c2ccc3c(c2)OCO3)o1)NC(c1ccccn1)C(F)(F)F (centres unmarked) | 4.2 |
| COc1ccc(C(=O)Nc2cc(C)on2)cc1 | 20.9 |
| O=C(ONC1=NCCCCC1)c1cccc([N+](=O)[O-])c1 | 0.994 |
| COC(=O)c1ccccc1NC(=O)N1CCN(c2ccccc2F)CC1 | -11.9 |
| Cc1nccn1CC(=O)N/N=C/c1cccs1 | 20.4 |
| CNC(=S)N/N=C/c1ccc(-c2ccc(C(=O)O)cc2)o1 | 9.52 |
| CCCC(=O)N1CCN(c2ccc(NC(=S)NC(=O)c3cccc(C)c3)cc2)CC1 | -18.3 |
| COc1ccc(C(=O)/C=C\c2ccc(NC(=O)c3cccs3)cc2)cc1 | 9.53 |
| O=C1NC(=O)C2(COC3(CCCC3)OC2)S1 | 1.26 |
| COc1ccc(C(C(=O)NCc2ccc(F)cc2)N(Cc2cccnc2)C(=O)c2snc(C(N)=O)c2N)cc1 (centres unmarked) | -62 |
| Cc1cccc(C(=O)NNC(=O)CCCCC(=O)NNC(=O)c2cccc(C)c2)c1 | 11.7 |
| CCCNS(=O)(=O)c1ccc(OCC(=O)Nc2ccc3c(c2)OCO3)cc1 | 21.9 |
| CC(Nc1ccccc1)c1cccnc1 (centres unmarked) | -49.1 |
| O=[N+]([O-])c1ccccc1S(=O)(=O)n1cnc2ccccc21 | 8.53 |
| NS(=O)(=O)c1ccc(CNC(=O)c2ccc(Br)o2)cc1 | -1.54 |
| COc1ccccc1N/N=C(\C#N)C(=N)N1CCOCC1 | 1.49 |
| O=C(/C=C/c1c(Cl)cccc1Cl)n1cccn1 | 15.7 |
| CN(CCn1ccnc1)Cc1cn(Cc2ccccc2)nc1-c1ccc2c(c1)OCO2 | -23.2 |
